Test results published in the supplement of paper PMC9446081.
Hit rate of the full screen: of about 39,000 compounds, about 220 (0.56%) showed activity. The list shows a part of the results.

System: Escherichia coli K-12 BW25113
Assay: relative growth (OD600 normalised to plate interquartile mean) (fraction); higher = less growth inhibition, active = 0.2 or less
Conditions: 50 µM; LB; incubation time: overnight (16-24 h)
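Further: static incubation at 37 °C against the wild-type strain, values averaged over two biological replicates.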

| SMILES | relative growth |
| --- | --- |
| C[C@@H]1CN([C@@H](C)CO)C(=O)Cc2cc(NS(=O)(=O)c3ccc(F)cc3)ccc2O[C@H]1CN(C)S(=O)(=O)c1ccccc1 | inactive: 1.01 |
| COc1ccc(S(=O)(=O)Nc2ccc3c(c2)C(=O)N([C@H](C)CO)C[C@H](C)[C@H](CN(C)Cc2ccc(Oc4ccccc4)cc2)O3)cc1 | inactive: 0.994 |
| CO[C@@H]1CN(C)C(=O)c2cc(NS(C)(=O)=O)ccc2OC[C@H](C)N(S(C)(=O)=O)C[C@@H]1C | inactive: 0.999 |
| O=C(C[C@@H]1C[C@H]2c3cc(NC(=O)c4ccc5c(c4)OCO5)ccc3O[C@H]2[C@@H](CO)O1)NCCN1CCCCC1 | inactive: 0.994 |
| COCC(=O)N(C)C[C@H]1Oc2cc(C#C[C@H](C)O)ccc2S(=O)(=O)N([C@H](C)CO)C[C@H]1C | inactive: 0.977 |
| COc1ccc(S(=O)(=O)Nc2ccc3c(c2)CC(=O)N([C@H](C)CO)C[C@@H](C)[C@H](CN(C)Cc2ccc(C(=O)O)cc2)O3)cc1 | inactive: 0.984 |
| C[C@@H]1CN([C@H](C)CO)C(=O)Cc2cc(NC(=O)Nc3ccc(F)cc3)ccc2O[C@@H]1CN(C)Cc1ccc(C(=O)Nc2ccccc2N)cc1 | inactive: 0.95 |
| COc1ccc(S(=O)(=O)N(C)C[C@H]2Oc3ccc(NC(=O)Nc4cccc5ccccc45)cc3C(=O)N([C@@H](C)CO)C[C@H]2C)cc1 | inactive: 1.05 |
| C[C@H](CO)N1C[C@H](C)[C@H](CN(C)C(=O)Nc2ccc(F)cc2)Oc2ccc(NC(=O)Cn3cnnn3)cc2C1=O | inactive: 1 |
| C[n+]1ccn(C[C@@]2(C)[C@H](C(=O)O)N3C(=O)C[C@H]3S2(=O)=O)n1 | inactive: 0.98 |
| C[C@@H]1CCCCO[C@H](CN(C)C(=O)Nc2cccc3ccccc23)[C@H](C)CN([C@H](C)CO)C(=O)c2cc(NS(=O)(=O)c3ccccc3)ccc2O1 | inactive: 1 |
| O=C(O)[C@@H]1CC(=O)N(C2CCCC2)C1 | inactive: 0.982 |
| Cc1ccc(C(=O)N2CCC(n3cc(C(C)(C)N)nn3)CC2)c(C)c1 | inactive: 1.02 |
| COc1ccc(CNC(=O)C[C@H]2C[C@@H]3c4cc(NC(=O)NC5CCCC5)ccc4O[C@@H]3[C@@H](CO)O2)cc1 | inactive: 0.973 |
| C[C@@H]1CN([C@@H](C)CO)C(=O)c2cccc(NC(=O)c3nc4ccccc4s3)c2O[C@H]1CN(C)Cc1ccc(C(=O)Nc2ccccc2N)cc1 | inactive: 1.03 |
| COc1ccc(S(=O)(=O)N(C)C[C@@H]2OCCCC[C@@H](C)Oc3ccc(NC(=O)Nc4ccc(F)cc4)cc3C(=O)N([C@@H](C)CO)C[C@@H]2C)cc1 | inactive: 1.04 |
| CCCNC(=O)N1C[C@@H](O)COC[C@@H]2O[C@@H](CC(=O)NCCCN3CCOCC3)CC[C@H]21 | inactive: 1.01 |
| C[C@@H]1CCCCO[C@@H](CN(C)Cc2ccc3c(c2)OCO3)[C@H](C)CN([C@H](C)CO)C(=O)c2cc(NS(=O)(=O)c3ccccc3)ccc2O1 | inactive: 1.05 |
| C/N=C(\NC)NCCC[C@H](N)C(=O)O | inactive: 0.837 |
| CN(C)Cc1nc(=O)c2ccccc2[nH]1 | inactive: 1.05 |

| SMILES | relative growth |
| --- | --- |
| OCCn1cncn1 | inactive: 0.995 |
| C[C@@H]1CN([C@H](C)CO)C(=O)c2cc(NC(=O)NC3CCCCC3)ccc2O[C@@H](C)CCCCO[C@H]1CN(C)Cc1ccncc1 | inactive: 1.02 |
| COc1cccc(CNC(=O)c2cc3c(c(-c4cccc(-c5ccc(C#N)cc5)c4)n2)[C@H](CCO)N([S@@](=O)C(C)(C)C)C3)c1 | inactive: 1.06 |
| C[C@H]1CN([C@@H](C)CO)C(=O)Cc2cc(NC(=O)CCCCCC(=O)Nc3ccccc3N)ccc2O[C@@H]1CN(C)Cc1ccc(C(F)(F)F)cc1 | inactive: 0.989 |
| C[C@@H]1CN([C@H](C)CO)C(=O)c2cccc(NS(=O)(=O)c3ccccc3)c2O[C@H]1CN(C)S(=O)(=O)c1ccccc1 | inactive: 1.01 |
| Cc1noc(C)c1NC(=O)N(C)C[C@@H]1OCCCC[C@H](C)Oc2ccc(NS(=O)(=O)c3ccccc3)cc2C(=O)N([C@H](C)CO)C[C@@H]1C | inactive: 1.02 |
| COc1ccc(S(=O)(=O)Nc2ccc3c(c2)C(=O)N([C@@H](C)CO)C[C@H](C)[C@@H](CN(C)C(=O)Nc2ccccc2)OCCCC[C@H](C)O3)cc1 | inactive: 0.982 |
| CCCCCCCCCCCCCCCC(=O)OC[C@H](NC(=O)C(Cl)Cl)[C@H](O)c1ccc([N+](=O)[O-])cc1 | inactive: 0.604 |
| Cc1noc(C)c1NC(=O)Nc1ccc2c(c1)C(=O)N([C@H](C)CO)C[C@H](C)[C@H](CN(C)S(=O)(=O)c1cccs1)OCCCC[C@@H](C)O2 | inactive: 1 |
| C[C@@H]1CN([C@@H](C)CO)C(=O)c2cc(NS(=O)(=O)c3cccs3)ccc2O[C@@H](C)CCCCO[C@@H]1CN(C)C(=O)Nc1ccc(C(F)(F)F)cc1 | inactive: 1.01 |
| O=C(Nc1ccccc1)Nc1ccc(Nc2ccccc2)cc1 | inactive: 1.03 |
| CC(=O)c1c(O)c(C)c(O)c2c1OC1=CC(=O)C(C(C)=O)C(=O)C12C (centres undefined) | inactive: 1.1 |
| COc1ccc(S(=O)(=O)N(C)C[C@@H]2Oc3ccc(NC(=O)C4CC4)cc3C(=O)N([C@H](C)CO)C[C@H]2C)cc1 | inactive: 0.993 |
| CC(C)NC(=O)N(C)C[C@H]1Oc2c(NS(=O)(=O)c3cccs3)cccc2C(=O)N([C@H](C)CO)C[C@@H]1C | inactive: 0.96 |
| Cc1noc(C)c1NC(=O)Nc1cccc2c1O[C@@H](CN(C)C(=O)Nc1cccc3ccccc13)[C@H](C)CN([C@@H](C)CO)C2=O | inactive: 0.988 |
| CS(=O)(=O)N1CCC2(CC1)CN(CCn1cccn1)C(=O)CO2 | inactive: 0.992 |
| Cc1ccc(S(=O)(=O)Nc2ccc3c(c2)C(=O)N([C@H](C)CO)C[C@@H](C)[C@H](CN(C)Cc2ccc(-c4ccccc4)cc2)O3)cc1 | inactive: 1.01 |
| C[C@@H]1CCCCO[C@@H](CN(C)Cc2ccncc2)[C@@H](C)CN([C@H](C)CO)C(=O)c2cc(NS(C)(=O)=O)ccc2O1 | inactive: 1.03 |
| C1CC1c1noc(C2CNC2)n1 | inactive: 0.974 |
